Common to all, as to assay: two-hybrid
The target of experiment [1] is CC domain of RB (aa 1-165) (Solanum bulbocastanum) (UniProt Q7XBQ9).
Experiment [2] concerns the target CC-NB domain of RB (aa 1-521) (Solanum bulbocastanum) (UniProt Q7XBQ9).
The target of experiment [3] is LRR domain of RB (aa 522-970) (Solanum bulbocastanum) (UniProt Q7XBQ9).
The target in experiment [4] is NB domain of RB (aa 166-521) (Solanum bulbocastanum) (UniProt Q7XBQ9).

By UniProt entry, the sequences of proteins in these tests, tags left out. Where a name states a change or a piece, a line headed by the entry shows the natural chain unless it says otherwise.
UniProt Q7XBQ9: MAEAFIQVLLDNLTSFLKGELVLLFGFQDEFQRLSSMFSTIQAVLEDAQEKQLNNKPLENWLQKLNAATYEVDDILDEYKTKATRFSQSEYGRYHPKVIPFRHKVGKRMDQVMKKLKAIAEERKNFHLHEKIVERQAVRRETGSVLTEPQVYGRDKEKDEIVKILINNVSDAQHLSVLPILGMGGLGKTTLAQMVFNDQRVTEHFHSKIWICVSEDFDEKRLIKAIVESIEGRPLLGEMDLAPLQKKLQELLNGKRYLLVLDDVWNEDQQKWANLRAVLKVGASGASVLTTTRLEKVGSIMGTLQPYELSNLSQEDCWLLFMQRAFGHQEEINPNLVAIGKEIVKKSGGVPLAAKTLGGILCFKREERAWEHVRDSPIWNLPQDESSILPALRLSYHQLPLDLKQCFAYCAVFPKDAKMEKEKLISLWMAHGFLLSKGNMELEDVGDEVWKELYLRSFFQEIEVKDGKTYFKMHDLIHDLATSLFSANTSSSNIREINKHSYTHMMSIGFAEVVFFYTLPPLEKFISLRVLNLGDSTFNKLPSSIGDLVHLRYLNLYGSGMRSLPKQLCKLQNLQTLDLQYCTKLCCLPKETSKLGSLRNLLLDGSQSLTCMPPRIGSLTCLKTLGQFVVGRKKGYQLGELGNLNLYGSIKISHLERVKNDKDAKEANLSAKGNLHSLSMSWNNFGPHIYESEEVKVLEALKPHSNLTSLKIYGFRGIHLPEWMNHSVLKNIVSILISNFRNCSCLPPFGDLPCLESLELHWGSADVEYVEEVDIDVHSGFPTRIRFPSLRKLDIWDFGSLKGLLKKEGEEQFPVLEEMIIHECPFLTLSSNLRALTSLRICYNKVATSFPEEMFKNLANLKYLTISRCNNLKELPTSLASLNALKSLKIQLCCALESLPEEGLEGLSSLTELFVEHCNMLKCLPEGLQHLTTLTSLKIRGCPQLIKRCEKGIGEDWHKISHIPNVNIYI

Results are given in words; binding and its absence hold for the method and conditions named. Some binding calls cover weakened binding; strength is not graded here.

For the substance “CC domain of RB (aa 1-165) (from UniProt Q7XBQ9 1-165) (domain or fragment)”, in experiment [1], the binding entry is recorded as “binds”.
Consider “CC-NB domain of RB (aa 1-521) (from UniProt Q7XBQ9 1-521) (domain or fragment)”, for which the binding entry in experiment [1], in experiment [2], in experiment [3] and in experiment [4] was “no binding” in each case.
On to “LRR domain of RB (aa 522-970) (from UniProt Q7XBQ9 522-970) (domain or fragment)”, for which the binding result in experiment [1], in experiment [3] and in experiment [4] was “no binding” each time.
As to “NB domain of RB (aa 166-521) (from UniProt Q7XBQ9 166-521) (domain or fragment)”, the binding entry in experiment [1] and in experiment [4] was “no binding” in each case.
